# In all, about 1,800 sequences were measured (“median log2 fold change of GCK-ALFA target abundance (FLAG IP / Myc IP barcode read proportion)”: median about 0.14, lowest 2% from about -0.84 on). The list shows a part of the results.
# T1: TRAF2, Q12933
# T1 chain: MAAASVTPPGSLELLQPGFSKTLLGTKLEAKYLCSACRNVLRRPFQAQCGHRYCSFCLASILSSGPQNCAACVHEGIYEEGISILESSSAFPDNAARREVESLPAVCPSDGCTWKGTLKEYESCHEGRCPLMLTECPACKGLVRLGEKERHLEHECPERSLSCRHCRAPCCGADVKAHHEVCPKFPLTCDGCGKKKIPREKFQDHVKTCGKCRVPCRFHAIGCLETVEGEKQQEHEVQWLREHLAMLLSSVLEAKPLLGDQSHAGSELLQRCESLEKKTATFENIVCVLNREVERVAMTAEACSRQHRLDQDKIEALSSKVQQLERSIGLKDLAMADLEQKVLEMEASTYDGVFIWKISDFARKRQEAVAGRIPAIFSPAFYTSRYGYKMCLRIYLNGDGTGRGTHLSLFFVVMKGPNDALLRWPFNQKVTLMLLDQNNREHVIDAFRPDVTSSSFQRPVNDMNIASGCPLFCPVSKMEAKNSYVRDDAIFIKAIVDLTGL
# B1: traf2_out_5_189_2319 (protein)
# chain: SSREEEEERDRELARRLNKEAIELLEELKKRNASHEEIKEEFIKRAKTLSIEEARLYTGIMYSILMGEAIVNNDEELKKAAEEMHKEILAWIREREKELA
# B2: traf2_out_1_27_1025 (protein)
# chain: SDEELTALIKETDRKIANSTPEEAKEIVKKAIKEAYKLGKSDAILLARTLVASQLDPERAKIIKEAVLEALKELGFSQETLDRVAKVMDSSIERIKKVLA
# B3: traf2_out_15_48_1368 (protein)
# chain: DAAAYRAAMNEAADAILATKDKVREKVKELAAKASPEVKAKLDAVVALIDAGAGSQDIIAALKEAAKKASPEEKKKLEALAKELEAARREASKIAAEMEK
# B4: traf2_out_13_95_1114 (protein)
# chain: SKELAEKIMEIADKALDKANELLDKLLAEIKASGKLPPEVEAALNAAKKSTIRTAIHTLQELAKEYPEFKELFEATIEELEKIRREAGKEVAKLIKEEKE
# B5: traf2_out_6_3_2524 (protein)
# chain: SEESLRADARKILEGMGITTAEQLRTLVTAEVNAVRQLVSRPDTDRADLAGARSVLALSRAIVDVAAETLPDLTPEQVAALRALIAAAEELIAAREAELA
# B6: traf2_out_20_3_2210 (protein)
# chain: KELEEKLKEELEKALKLLKEAKKLADPETAKKLDELIKRLKASEELSYEDRLVELSEIRREVLLLAQEAKAKGNEELAKVLEKAADAIQRAMNLVYKIIE
# B7: traf2_out_13_95_1165 (protein)
# chain: EEEKTKKEREIASEAYDEMEKVARDFAARVRALIDDPEADALMDEVVRNMNIYTLEAAAARLQAAHPEHAAEIAALAAEALAKMREIIKETTEKLNEIEE
# B8: traf2_out_18_147_1812 (protein)
# chain: SWKDAIDKIADLSEEIRELMREIAELTGEEEETKELEDILTSTSVSDEEKEKAVEEAIKKYKEKGKEEAVEKLKKALELSKKRKEAAKEANKLINEEEAK
# B9: traf2_out_12_187_967 (protein)
# chain: SVEEELIEAAKEALRQALKALEKAAPEHPRFQEMLKRLKEVEKLLEKHPEVAADVTVAASLILRAVRLLEAGLPQEEVDAALAAAEKELEEVLKKLKELE
# B10: traf2_out_20_3_2067 (protein)
# chain: SELEEELEKELEKALKLLKEAAKKADPATAKELEALIKRLKESRELSYSDRLVEVSEVRREVLALAEKAKAAGDAELAKLLDKAADALNRAAQLLYDILQ
# B11: traf2_out_1_27_1013 (protein)
# chain: SDEELTALIKKTDKEVASVNLEEAKEVVKKAIKEAYKLGKGDAVMLARTLVASELDKERAEAITEAALEAFKELGFPEEEIEELRKIFESIMERIEKVLA
# B12: traf2_out_17_162_1526 (protein)
# chain: SALEERLAELEAELERLEEELERLKERLERIDELSKEELTDLLVEASEARRRARELAEELRELRAEIGEERAEELIERAERIAEELQRIANELYKRLEEK
# B13: traf2_out_18_157_1819 (protein)
# chain: MTEEELLRLAKWAQEASDAFDDLAAEVADASLDEIIAAFKALAAKQVEAGKEFPKETVLDMLKRQARRAIERIGAARGLSPEEVQAMIDTVNAAIEEKVA
# B14: traf2_out_15_180_1322 (protein)
# chain: MTEEELKRRIELANEVADKADDRLAELLAANPGLSEAEKAALRALRRSVTTLLFNGEEAEAAAAVAAAKARLSPEAAAVADELYAFIRELVAAAKAELAA
# B15: traf2_out_3_77_2274 (protein)
# chain: SMKKEEIREKLDEATTLAIASLAVNAINNPEKAEEFREMARIVHRARAIAKEKGKEEELLPLIEEAKEAADKLNEGDESALEKLKEIVKKIGELAEKWEK
# B16: traf2_out_14_166_1279 (protein)
# chain: MTPEEIERIRKIVDELEPLTDAAVARARAILAANRGRLSPEDLARVEELLALAARNIGSSAINALREIAEIFRAAGLEAAAAEVQALADELEEKLKELNK
# B17: traf2_out_15_48_1357 (protein)
# chain: TTEELRKTAREINDLIDATLDEVAAELRALLPEAPEENKPLLEEAIDVASNHRSINDTIALLDEAIARSDPELKARLEALRDRLLATKKEASKLFNEALK
# B18: traf2_out_18_117_1797 (protein)
# chain: SELEEAKKEFEKTAEEFEKELEEAQRIATKLIEKYPKALPPEAMDAIVELGEVKRRFQQLKQEAEANPNNLEKQKEIVEELKKLTEKMKEIREKLEKILA
# B19: traf2_out_20_38_2044 (protein)
# chain: VTIEEAAANIEKLAPQFFAIADEVDELVARLRAEGLSDEEIADRLEEHAVARLKSLGDEEGAEELRETMAELRAAGASLRDVARAAVRAMSTALDKKANE
# Target: T1, TRAF2, Q12933
# Assay: median log2 fold change of GCK-ALFA target abundance (FLAG IP / Myc IP barcode read proportion) (log2 ratio); each designed protein is fused to an ALFA-tag nanobody in HEK293 cells to bring the named protein to FLAG-tagged glucokinase (GCK); Myc marks an untargeted standard; higher = target protein stabilised (more abundant)
# Conditions: target protein: 3xFLAG-MCP-GCK-ALFA reporter; HEK293 landing pad (RPLP)
# Outline: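 HEK293 landing-pad cells received a recombined binder library fused to the ALFA nanobody and were induced with 2 μg mL^−1 doxycycline, then transfected with a plasmid encoding a FLAG-tagged target and a Myc-tagged standard. Lysates were collected after 48 h for anti-FLAG and anti-Myc immunoprecipitation, and the circular RNA barcodes were reverse transcribed, amplified and sequenced. Target abundance for each binder is the median log2 ratio of FLAG to Myc barcode read proportions. Barcodes had to reach a proportion of at least 10^−7 in both replicates, each binder needed at least 3 barcodes per replicate, a pseudocount of 10^−6 was applied, and the two replicates were pooled.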
row,Binder,median log2 fold change
1,B1,0.331
2,B2,0.141
3,B3,0.483
4,B4,0.00211
5,B5,-0.125
6,B6,0.436
7,B7,0.174
8,B8,0.176
9,B9,0.215
10,B10,0.201
11,B11,0.335
12,B12,0.249
13,B13,0.268
14,B14,0.295
15,B15,0.354
16,B16,0.292
17,B17,0.269
18,B18,0.359
19,B19,0.255

# Source: the supplement of paper PMC12632987
